Data as given in the RNAGym collection of RNA variant scans (doi:10.1101/gad.245936.114).
Variants at the floor of the assay are shown more often than the library holds them.

B1: tRNA (parent)
chain: CUCUCGGUAGCCAAGUUGGUUUAAGGCGCAAGACUUUAAUUUAUCACUACGAAAUCUUGAGAUCGGGCGUUCGACUCGCCCCCGGGAGAUUUUUUCCUCGAGCAA

Variants of: B1
Test: nonsense suppression (GFP-seq) (ratio to wild type); higher = more function; SUP4oc tRNA, yeast GFP reporter sort-seq
Summary of the method: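 Yeast were grown in raffinose/galactose medium with 80 mg/L adenine, each strain bearing a genome-integrated ochre-suppressor tRNA variant from a ~3% random-mutation library, a galactose-driven GFP ochre reporter, and RFP. After sorting into GFP/RFP bins, every bin was sequenced on an Illumina platform at phred ≥30. The GFPSEQ value, a measure of nonsense suppression, is the weighted bin median GFP/RFP relative to the unmutated parent tRNA, using each variant's estimated cell share per bin as the weight. Only variants with ≥100 reads and ≥30 cells were included.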

Nonsense suppression, ≤ 0.026:
CUCUCGGUAGCCAAGUUGGUUUAAGGCGCAAGACUUUAAUUUAUCACUACGAAAUCUUAAGAUCGGGGGUUCGACCCGCCCCCGGGAGAUUUUUUCCUCGAGCAA [G59A C68G U76C]
CUCUCGGUAGCCAAGUUGGUUUAAGGCGCAAGACUUUAAUUUAUCACUACGAAAUCUUAAGAUCGGGCGUUCGACUUCCCCCCGGGAGAUUUUUUCCUCGAGCAA [G59A C77U G78C]
CUCUCGGUAGCCAAGUUGGUUUAAGGCGCAAGACUUUAAUUUAUCACUACGAAAUCUGGAGAUCGGGCAUUCGACUCGCCCCCGGGAGUUUUUUUCCUCGAGCAA [U58G G69A A89U]
CUCUCGGUAGCCAAGUUGGUUUAAGGCGCAAGACUUUAAUUUAUCACUACGAAAUCUUAAGAUCGGGCGUUCGACUCGCCCCCGGUAGAUUUUUUCCUCGAGCAA [G59A G86U]
CUCUCGGUAGCCAAGUUGGUUUAAGGCGCAAGACUUUAAUUUAUCACUACGAAAUCUUAAGAUCGGGCGUUCGACUCGCCCCCGGAAGAUUUUUUCCUCGAGCAA [G59A G86A]
CUCUCGGUAGCCAAGUUGGUUUAAGGCGCAAGACUUUAAUUUAUCACUACGAAAUCUUAAGAUCGGGCGUUCGACUCGCCCCCGGCAGAUUUUUUCCUCGAGCAA [G59A G86C]
CUCUCGGUAGCCAAGUUGGUUUAAGGCGCAAGACUUUAAUUUAUCACUACGAAAUCUUAAGAUCGUGCGUUCAACUCGCCCCCGGGAGAUUUUUUCCUCGAGCAA [G59A G66U G73A]
CUCUCGGUAGCCAAGUUGGUUUAAGGCGCAAGACUUUAAUUUAUCACUACGAAAUCUGGAGAUCGGGCGUUCGACUCCCCCCCGGGAGAUUUUUUCCUCGAGCAA [U58G G78C]
CUCUCGGUAGCCAAGUUGGUUUAAGGCGCAAGACUUUAAUUUAUCACUACGAAAUCUGGAGAUCUGGCGUUCGACUCGCCCCCGGGAGAUUUUUUCCUCGAGCAA [U58G G65U]
CUCUCGGUAGCCAAGUUGGUUUAAGGCGCAAGACUUUAAUUUAUCACUACGAAAUCUUCAGAUCGGGCGUUCGACUCGCCCCCGGGAGAUUUUUUCCUCGAGCAA [G59C]
CUCUCGGUAGCCAAGUUGGUUUAAGGCGCAAGACUUUAAUUUAUCACUACGAAAUCUUAAGAUCGGGCGUUCGACUCGCCCCCGGGAGAUUUUUUCCUCGAGCAA [G59A]
CUCUCGGUAGCCAAGUUGGUUUAAGGCGCAAGACUUUAAUUUAUCACUACGAAAUCUUAAAAUCGGGCGUGCGACUCUCCCCCGGGAGAUUUUUUCCUCGAGCAA [G59A G61A U71G G78U]
CUCUCGGUAGCCAAGUUGGUUUAAGGCGCAAGACUUUAAUUUAUCACUACGAAAUCUUAAGAUCGGGCGUUCGACUCGCCCCCGAGAGAUUUUUUCCUCGAGCAA [G59A G85A]
CUCUCGGUAGCCAAGUUGGUUUAAGGCGCAAGACUUUAAUUUAUCACUACGAAAUCUGGAGAUCGGGCCUUCGACUCGCCCCCGGGAGAUUUUUUCCUCGAGCAA [U58G G69C]
CUCUCGGUAGCCAAGUUGGUUUAAGGCGCAAGACUUUAAUUUAUCACUACGAAAUCUUAACAUCGGGCGUUCGACUCGCCCCCGGGAGAUUUUUUCCUCGAGCAA [G59A G61C]
CUCUCGGUAGCCAAGUUGGUUUAAGGCGCAAGACUUUAAUUUAUCACUACGAAAUCUUAAGAUCGUGCGUUCGACUCGCCCCGGGGAGAUUUUUUCCUCGAGCAA [G59A G66U C83G]
CUCUCGGUAGCCAAGUUGGUUUAAGGCGCAAGACUUUAAUUUAUCACUACGAAAUCUUAAAAUCGGGCGUUCGAAUCGGCCCCGGGAGUUUUUUUCCUCGAGCAA [G59A G61A C75A C79G A89U]
CUCUCGGUAGCCAAGUUGGUUUAAGGCGCAAGACUUUAAUUUAUCACUACGAAAUCUUAAUAUCGGGCGUGCGACUCGCCCCCGGGAGAUUUUUUCCUCGAGCAA [G59A G61U U71G]
CUCUCGGUAGCCAAGUUGGUUUAAGGCGCAAGACUUUAAUUUAUCACUACGAAAUCUGGAAAUCGGGCGUUCGACUCGCCCCCGGGAGUUUUUUUCCUCGAGCAA [U58G G61A A89U]
CUCUCGGUAGCCAAGUUGGUUUAAGGCGCAAGACUUUAAUUUAUCACUACGAAAUCUUAAGUUCGGGCGUUCGACUCGCCCCCGGGAGAUUUUUUCCUCGAGCAA [G59A A62U]
CUCUCGGUAGCCAAGUUGGUUUAAGGCGCAAGACUUUAAUUUAUCACUACGAAAUCUGGAGAUCGGGCGUUCGACUCGCCCCCGGGAUAUUUUUUCCUCGAGCAA [U58G G88U]
CUCUCGGUAGCCAAGUUGGUUUAAGGCGCAAGACUUUAAUUUAUCACUACGAAAUCUGGAGAUCGGGCGUUCGACUCGCCCCCGGGAAAUUUUUUCCUCGAGCAA [U58G G88A]
CUCUCGGUAGCCAAGUUGGUUUAAGGCGCAAGACUUUAAUUUAUCACUACGAAAUCUUAAGAUCGUGCGUUCAACUCGCACCCGGGAGAUUUUUUCCUCGAGCAA [G59A G66U G73A C80A]
CUCUCGGUAGCCAAGUUGGUUUAAGGCGCAAGACUUUAAUUUAUCACUACGAAAUCUGGAGAUCGGGCGUUCGACUCGGCCCCGGGAGGUUUUUUCCUCGAGCAA [U58G C79G A89G]
CUCUCGGUAGCCAAGUUGGUUUAAGGCGCAAGACUUUAAUUUAUCACUACGAAAUCUUAAGAUCGGGCGUUCGACUCGCGCCCGGGAGAUUUUUUCCUCGAGCAA [G59A C80G]
CUCUCGGUAGCCAAGUUGGUUUAAGGCGCAAGACUUUAAUUUAUCACUACGAAAUCUGGAGAUCGGGCGUUCGACUCGCCCCCGGAAGAUUUUUUCCUCGAGCAA [U58G G86A]
CUCUCGGUAGCCAAGUUGGUUUAAGGCGCAAGACUUUAAUUUAUCACUACGAAAUCUGAAGAUCGGGCGUUCGACUCGCUCCCGGUAGAUUUUUUCCUCGAGCAA [U58G G59A C80U G86U]
CUCUCGGUAGCCAAGUUGGUUUAAGGCGCAAGACUUUAAUUUAUCACUACGAAAUCUUAAGAUCGGGCGUUCAACUCGCCCCCGGGAGAUUUUUUCCUCGAGCAA [G59A G73A]
CUCUCGGUAGCCAAGUUGGUUUAAGGCGCAAGACUUUAAUUUAUCACUACGAAAUCUGGAGAAAGGGCGUUCCACUCGCCCCCGGGAGAUUUUUUCCUCGAGCAA [U58G U63A C64A G73C]
CUCUCGGUAGCCAAGUUGGUUUAAGGCGCAAGACUUUAAUUUAUCACUACGAAAUCUUAAGAUCGGACGUUCGACUGGCCCCCGGGAGAUUUUUUCCUCGAGCAA [G59A G67A C77G]
CUCUCGGUAGCCAAGUUGGUUUAAGGCGCAAGACUUUAAUUUAUCACUACGAAAUCUUAAGAUCGGGCGUUCGACUCGCCCCCCGGAGAUUUUUUCCUCGAGCAA [G59A G84C]
CUCUCGGUAGCCAAGUUGGUUUAAGGCGCAAGACUUUAAUUUAUCACUACGAAAUCUUAAGAUCCGGCGUUCGACUCGCCCCCGGGACAUUUUUUCCUCGAGCAA [G59A G65C G88C]
CUCUCGGUAGCCAAGUUGGUUUAAGGCGCAAGACUUUAAUUUAUCACUACGAAAUCUUAAGAUCGCGCGUUCGACCCGCCCCCGGGAGAUUUUUUCCUCGAGCAA [G59A G66C U76C]
CUCUCGGUAGCCAAGUUGGUUUAAGGCGCAAGACUUUAAUUUAUCACUACGAAAUCUGGAGAUCGGGCGUUCGACUCGCCCCAGGGAGAUUUUUUCCUCGAGCAA [U58G C83A]
CUCUCGGUAGCCAAGUUGGUUUAAGGCGCAAGACUUUAAUUUAUCACUACGAAAUCUGGAGAUCGGGCGUCCGACUCGCCCCCGGGAGAUUUUUUCCUCGAGCAA [U58G U71C]
CUCUCGGUAGCCAAGUUGGUUUAAGGCGCAAGACUUUAAUUUAUCACUACGAAAUCUUAAGAUCGGGCGGUCGACUCGCCCCCGGGAGAUUUUUUCCUCGAGCAA [G59A U70G]
CUCUCGGUAGCCAAGUUGGUUUAAGGCGCAAGACUUUAAUUUAUCACUACGAAAUCUUAAGAUCGGGCGCUCGACUCGCCCCCGGGAGAUUUUUUCCUCGAGCAA [G59A U70C]
CUCUCGGUAGCCAAGUUGGUUUAAGGCGCAAGACUUUAAUUUAUCACUACGAAAUCUGGAGACCGGGCGUUCGACUCGCCCCCGGGAGAUUUUUUCCUCGAGCAA [U58G U63C]
CUCUCGGUAGCCAAGUUGGUUUAAGGCGCAAGACUUUAAUUUAUCACUACGAAAUCUUAAGAUCGGGUGUUCGACCCGCCCCCGGGAGAUUUUUUCCUCGAGCAA [G59A C68U U76C]
CUCUCGGUAGCCAAGUUGGUUUAAGGCGCAAGACUUUAAUUUAUCACUACGAAAUCUGGAGAUCGGGCGCUCGACUCGCCCCCGGGAGAUUUUUUCCUCGAGCAA [U58G U70C]
CUCUCGGUAGCCAAGUUGGUUUAAGGCGCAAGACUUUAAUUUAUCACUACGAAAUCUGGAGAUCGAGCGUUCGACUCGCCCCCGGGUGAUUUUUUCCUCGAGCAA [U58G G66A A87U]
CUCUCGGUAGCCAAGUUGGUUUAAGGCGCAAGACUUUAAUUUAUCACUACGAAAUCUUAAGAUCGGGCGUUCGACGCGCCCCCGGGAGAUUUUUUCCUCGAGCAA [G59A U76G]
CUCUCGGUAGCCAAGUUGGUUUAAGGCGCAAGACUUUAAUUUAUCACUACGAAAUCUUAAGAUCGGGCGUUCGACUCGCCCUCGGGAGAUUUUUUCCUCGAGCAA [G59A C82U]
CUCUCGGUAGCCAAGUUGGUUUAAGGCGCAAGACUUUAAUUUAUCACUACGAAAUCUUCAGCUCGGGCGUUCGACUCGCCCCCGGGAGAUUUUUUCCUCGAGCAA [G59C A62C]
CUCUCGGUAGCCAAGUUGGUUUAAGGCGCAAGACUUUAAUUUAUCACUACGAAAUCUUCAGGUCGGGCGUUCGACUCGCCCCCGGGAGAUUUUUUCCUCGAGCAA [G59C A62G]
CUCUCGGUAGCCAAGUUGGUUUAAGGCGCAAGACUUUAAUUUAUCACUACGAAAUCUGGAGAUCGGGCGUUCGACUUGCCCCCGGGAGAUUUUUUCCUCGAGCAA [U58G C77U]
CUCUCGGUAGCCAAGUUGGUUUAAGGCGCAAGACUUUAAUUUAUCACUACGAAAUCUGGAGAUCGGCCGUUCGACUCGCCCCCGGGAGAUUUUUUCCUCGAGCAA [U58G G67C]
CUCUCGGUAGCCAAGUUGGUUUAAGGCGCAAGACUUUAAUUUAUCACUACGAAAUCUGGAGAUCGGACGUUCGACUCGCCCCCGGGAGAUUUUUUCCUCGAGCAA [U58G G67A]
CUCUCGGUAGCCAAGUUGGUUUAAGGCGCAAGACUUUAAUUUAUCACUACGAAAUCUGGAGAACGGGCGUUCGACUCGACCCCGGGAGAUUUUUUCCUCGAGCAA [U58G U63A C79A]
CUCUCGGUAGCCAAGUUGGUUUAAGGCGCAAGACUUUAAUUUAUCACUACGAAAUCUGGAGAUCGGGCUUUCGAAUCGCCCCAGGGAGAUUUUUUCCUCGAGCAA [U58G G69U C75A C83A]
CUCUCGGUAGCCAAGUUGGUUUAAGGCGCAAGACUUUAAUUUAUCACUACGAAAUCUUAAGAUCGGGCGUUCGACUCGCCCCCGGGGGAUUUUUUCCUCGAGCAA [G59A A87G]
CUCUCGGUAGCCAAGUUGGUUUAAGGCGCAAGACUUUAAUUUAUCACUACGAAAUCUUAAGAUCGGGCGUGCGACUCGCCCCCGCGAGAUUUUUUCCUCGAGCAA [G59A U71G G85C]
CUCUCGGUAGCCAAGUUGGUUUAAGGCGCAAGACUUUAAUUUAUCACUACGAAAUCUUCUGAUCGGGCGUUCGACUCGCCCCCGGGAGAUUUUUUCCUCGAGCAA [G59C A60U]
CUCUCGGUAGCCAAGUUGGUUUAAGGCGCAAGACUUUAAUUUAUCACUACGAAAUCUGGAGAUCCGGCGUUCGACUCGCACCCGGUAUAUUUUUUCCUCGAGCAA [U58G G65C C80A G86U G88U]
